# From the supplement of paper PMC9334596
# “And” between values parts separate entries of the source, which are not always exact repeats. Equal entries are not always repeated. The full ranking holds about 5,300 compounds; the median of “PER2::LUC luminescence relative to vehicle control” is about 0.96, and the highest 2% start at about 1.3. This is one part of the list.
# Test system: mPer2Luc MEF
# Assay: PER2::LUC luminescence relative to vehicle control (fold of vehicle); higher = higher PER2::LUC reporter signal
# Conditions: 10 µM
# Method in brief: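 The reported values are PER2::LUC luminescence as fold of vehicle control in mouse embryonic fibroblasts carrying the mPer2Luc reporter. Cells were seeded at ~3000 per well in 384-well plates in DMEM with 10% FBS at 37 °C and 5% CO2, and compounds were added at 10 μM 48 h later. ONE-Glo luminescence was read 24 h and 30 h after treatment.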
SMILES,PER2::LUC luminescence (time after treatment 24 h),PER2::LUC luminescence (time after treatment 30 h)
CCCN1CCC[C@H](c2cccc(O)c2)C1,1.02,0.848
CC[C@@]1([C@@H]2O[C@@H]([C@H]3O[C@@](O)(CO)[C@H](C)C[C@@H]3C)C[C@@H]2C)CC[C@H]([C@]2(C)CC[C@]3(C[C@H](O)[C@@H](C)[C@@H]([C@@H](C)[C@@H](OC)[C@H](C)C(=O)O)O3)O2)O1,0.255,0.203
CCN(C)C(=O)Oc1cccc([C@H](C)N(C)C)c1,1.1 and 0.692,1.22 and 0.879
CC(=O)C1CCC2C3CCC4C[C@H](O)CCC4(C)C3C[C@H](O)C12C (stereo partly drawn),0.95,0.944
O=[N+]([O-])c1cc([As](=O)(O)O)ccc1O,1.08,1.54
COc1ccc2c(c[n+](C)c3c4cc5c(cc4ccc23)OCO5)c1OC,0.221,0.264
Cc1c(Cl)cccc1S(=O)(=O)Nc1nc(CC(=O)N2CCN(C)CC2)cs1,0.98,1.02
CCN1C[C@]2(COC(=O)c3ccccc3N3C(=O)C[C@H](C)C3=O)CC[C@H](OC)[C@@]34[C@@H]5C[C@H]6[C@H](OC)[C@@H]5[C@](O)(C[C@@H]6OC)[C@](O)([C@@H](OC)[C@H]23)[C@@H]14,0.723,0.947
C[C@]12C=CC(=O)C=C1CC[C@@H]1[C@@H]2CC[C@]2(C)C(=O)CC[C@@H]12,0.808,0.817
CCN1C[C@]2(OC(=O)c3ccccc3NC(C)=O)CC[C@H](OC)[C@@]34[C@@H]2C[C@@H]([C@@H]13)[C@@]1(O)C[C@H](OC)[C@H]2C[C@@H]4[C@]1(O)[C@H]2OC,0.983,0.939
CC(=O)CC1CCCCN1 (stereo not drawn),1.07,1.09
CCN1C[C@]2(COC)[C@H](O)C[C@H](OC)[C@@]34[C@@H]5C[C@@]6(O)[C@H](OC(=O)c7ccccc7)[C@@H]5[C@@](OC(C)=O)([C@@H]([C@H](OC)[C@H]23)[C@@H]14)[C@@H](O)[C@@H]6OC,0.896,0.934
CC(C)(Cc1c[nH]c2ccc(Cl)cc12)NCCOc1ccccc1OCC1CC1,0.692,0.719
O=c1[nH]c2ccccc2n1C1CCN(Cc2ccc(-c3[nH]c4cc5ncnc5cc4nc3-c3ccccc3)cc2)CC1,0.456,0.497
C[C@H]1O[C@@H](C[N+](C)(C)C)CS1,0.999,0.782
Cc1ccc(C[N+](C)(C)C)o1,0.969,1.03
CCCN1CCc2cccc3c2[C@H]1Cc1ccc(O)c(O)c1-3,0.856,0.747
C[C@]12CC[C@@H]3c4ccc(OC(=O)N(CCCl)CCCl)cc4CC[C@H]3[C@@H]1CC[C@@H]2O,0.908,0.795
C=C1[C@H]2C[C@@]3([C@@H]1O)[C@@H](CC2=O)[C@]12[C@@H]4C[C@H]3[C@H]1N(CC)C[C@]4(C)CC[C@@H]2O,1,0.997
COc1ccc(O)c(C(C)(C)C)c1.COc1ccc(O)cc1C(C)(C)C,0.868,1.18
CCCN(CCC)C1CCc2cccc(O)c2C1 (stereo not drawn),0.923,1.02

SMILES,PER2::LUC luminescence (time after treatment 24 h),PER2::LUC luminescence (time after treatment 30 h)
C=CCc1cc(OC)c2c(c1)OCO2,1.1,1.14
COc1ccc(C(=O)OC2CC3CCC(C2)N3C)cc1OC (stereo not drawn),0.888,0.897
C[C@]12N[C@H](Cc3ccccc31)c1ccccc12,1.02 and 0.951,1.08 and 0.93
C[N+]1([O-])[C@@H]2C[C@@H](OC(=O)[C@H](CO)c3ccccc3)C[C@H]1[C@@H]1O[C@@H]12 (stereo partly drawn),0.975,1.04
NCCc1ccccn1,0.99,1.45
CCNC(=O)C[C@H]1N=C(c2ccc(Cl)cc2)c2cc(OC)ccc2-n2c(C)nnc21,1.05,1.02
CO[C@@H]1C[C@@H](C[C@H]2CC[C@H](C)[C@H]([C@@H](C)C(=O)O)O2)O[C@]2(O[C@](C)([C@H]3CC[C@@](C)([C@@H]4O[C@@H]([C@H]5O[C@@](O)(CO)[C@H](C)C[C@@H]5C)C[C@@H]4C)O3)C[C@H]2C)[C@@H]1C,0.479 and 0.364,0.433 and 0.327
COC1=CC(=O)O[C@@H](CCc2ccc3c(c2)OCO3)C1,0.859,0.763
CCC(=O)CCCCC[C@@H]1NC(=O)[C@H]2CCCCN2C(=O)[C@H]([C@@H](C)CC)NC(=O)[C@H](Cc2cn(OC)c3ccccc23)NC1=O,1.09,1.1
CCN(CC)C(C)C(=O)c1ccccc1 (stereo not drawn),1.07,1.11
CCC1(O)C(=O)OCc2c1cc1n(c2=O)Cc2cc3ccccc3nc2-1 (stereo not drawn),0.427,0.351
O=C1CCCN1CC#CCN1CCCC1,1.17,1.08
c1cncc([C@@H]2CCCN2)c1,0.795,0.811
CC1(C)C(C=C(Cl)Cl)C1C(=O)OC(C#N)c1cccc(Oc2ccccc2)c1 (stereo not drawn),1.06,1.1
Oc1cc(Cl)ccc1Oc1ccc(Cl)cc1Cl,0.979,0.849
CCCN(CCC)C1CCc2ccc(O)cc2C1 (stereo not drawn),0.975 and 0.96,1.04 and 0.898
c1ccc(C2(c3ccccc3)CC2C2=NCCN2)cc1 (stereo not drawn),0.894,0.805
C/C=C1\C[C@@H](C)[C@](O)(CO)C(=O)OCC2=CCN3CC[C@@H](OC1=O)[C@@H]23,1.01,0.958
CC1=C2[C@H]3OC(=O)[C@@H](C)[C@@H]3CC[C@@]2(C)C=CC1=O,0.962,0.964
CCC(N)C(O)c1ccc(O)c(O)c1 (stereo not drawn),1.2 and 0.593,0.876 and 0.965
C[C@](O)(COc1ccc(C#N)cc1)C(=O)Nc1ccc(C#N)c(C(F)(F)F)c1,1.12 and 1.15,0.984 and 1.16

SMILES,PER2::LUC luminescence (time after treatment 24 h),PER2::LUC luminescence (time after treatment 30 h)
CN1C[C@H](CO)C=C2c3cccc4[nH]cc(c34)C[C@H]21,1.03,0.981
CC(N)Cc1c[nH]c2ccc(O)cc12 (stereo not drawn),1.09,1.16
CN(N=O)c1cc(O)ccc1O,1.02,1.27
C[C@H]1CCC[C@H](O)CCCCCc2cc(O)cc(O)c2C(=O)O1,0.833,0.805
COc1ccc(CCN2CCC(Nc3nc4ccccc4n3Cc3ccc(F)cc3)CC2)cc1,0.334,0.157
Cc1c([C@H](C)[C@@H]2NC[C@@H](C)C[C@H]2O)ccc2c1C[C@H]1[C@H]2CC=C2C[C@@H](O)CC[C@@]21C,0.905,0.795
CC(=O)O[C@H]1C[C@H](O[C@H]2[C@@H](O)C[C@H](O[C@H]3[C@@H](O)C[C@H](O[C@H]4CC[C@@]5(C)[C@H](CC[C@@H]6[C@@H]5C[C@@H](O)[C@]5(C)[C@@H](C7=CC(=O)OC7)CC[C@]65O)C4)O[C@@H]3C)O[C@@H]2C)O[C@H](C)[C@H]1O[C@@H]1O[C@H](CO)[C@@H](O)[C@H](O)[C@H]1O,1.08,1.16
CC(=O)Nc1ccc(OC[C@](C)(O)C(=O)Nc2ccc([N+](=O)[O-])c(C(F)(F)F)c2)cc1,1.17,1.24
CC(CN)CC(=O)O (stereo not drawn),0.986,1.06
COC(=O)C1=CCCN(C)C1,0.965 and 0.876 and 0.727,0.962 and 0.933 and 0.874
Fc1ccc(C(OCCN2CCN(CCCc3ccccc3)CC2)c2ccc(F)cc2)cc1,0.59 and 0.26,0.539 and 0.22
N[C@@H](CCl)C(=O)O,0.956,0.934
CC(C)(C)NCC(O)c1cc(Cl)c(N)c(Cl)c1 (stereo not drawn),0.906,0.859
COc1cc2c(cc1OC)[C@@]13CCN4CC5=CCO[C@H]6CC(=O)N2[C@H]1[C@H]6[C@H]5C[C@H]43,1.15 and 0.445,1.09 and 0.871
CC(C)(c1ccc(OCC2CO2)cc1)c1ccc(OCC2CO2)cc1 (stereo not drawn),0.988,0.942
CC(C)N(CCNC(=O)CN1CCCC1=O)C(C)C,0.99,1.07
COc1cc2c(cc1OC)[C@H](C)NCC2,0.865,0.957
CNCC(=O)c1ccc(O)c(O)c1,0.996,0.936
O=C(NC(=O)c1c(F)cccc1F)Nc1cc(Cl)c(OC(F)(F)C(F)C(F)(F)F)cc1Cl (stereo not drawn),1.11,1.15
CCOC(=O)c1cc2c(cn1)[nH]c1ccccc12,0.973,0.966
NNC(N)=O,1.09,0.875

SMILES,PER2::LUC luminescence (time after treatment 24 h),PER2::LUC luminescence (time after treatment 30 h)
O=C[C@H](Cl)[C@@H](O)[C@H](O)[C@H](O)CO,0.918,1.14
COc1ccc(Cc2nccc3cc(OC)c(OC)cc23)cc1OC,0.68,0.652
NCCCP(=O)(O)O,1.06,1.08
CNCCc1c[nH]c2ccc(O)cc12,0.889,0.932
CNC1=Nc2ccc(Cl)cc2C(c2ccccc2)=[N+]([O-])C1,0.985,1.04
CCC1(CC)C(=O)C=CNC1=O,1.04,0.975
COc1cc2c(c(OC)c1OC)-c1ccc(=O)c(O)cc1[C@@H](NC(C)=O)CC2,1.07,1.05
O=C(N/N=C/c1ccc([N+](=O)[O-])o1)c1cc([N+](=O)[O-])cc([N+](=O)[O-])c1O,0.918,0.876
C[C@]12CC[C@H]3[C@@H](CC[C@@]45O[C@@H]4C(O)=C(C#N)C[C@]35C)[C@@H]1CC[C@@H]2O,1.01,0.933
C[C@]1(O)CC[C@H]2[C@@H]3CCC4=CC(=O)CC[C@]4(C)[C@@]3(F)[C@@H](O)C[C@@]21C,0.978,1.06
COc1ccc2c3c4n(c2c1)[C@H](C=C(C)C)OOC(C)(C)C[C@@H]4N1C(=O)[C@@H]2CCCN2C(=O)[C@]1(O)[C@H]3O,1.02,0.995
O=C1CSC(c2ccccc2Cl)c2cc(Cl)ccc2N1 (stereo not drawn),1.04,1
NNC(=O)c1ccc(O)cc1,1.08,1.08
CN(C)NC(=O)CCC(=O)O,1.05,1.02
O=[N+]([O-])c1ccc([As](=O)(O)O)cc1,1.13,0.866
CCN(C(C)=O)c1cccc(-c2ccnc3c(C#N)cnn23)c1,0.968,0.978
NCCc1c[nH]c2ccc(O)cc12,0.925,0.97
CNC(C)[C@H](O)c1ccccc1 (stereo partly drawn),1.03,0.928
CCC(COC(=O)c1cc(OC)c(OC)c(OC)c1)(c1ccccc1)N(C)C (stereo not drawn),0.946 and 0.824,0.986 and 0.789
C[C@]12CC[C@H](O)CC1=CC[C@@H]1[C@@H]2CC[C@@]2(C)[C@H]1CC[C@]2(C)O,0.959,0.777
C/C=C(\C)C(=O)N[C@@H](c1ccccc1)[C@@H](O)C(=O)O[C@H]1C[C@@]2(O)[C@@H](OC(=O)c3ccccc3)[C@@H]3[C@]4(OC(C)=O)CO[C@@H]4C[C@H](O)[C@@]3(C)C(=O)[C@H](OC(C)=O)C(=C1C)C2(C)C,0.467,0.448
